# Laboratory results as given in the supplement of paper PMC8728848.
# Some of the results follow.
# What was measured:
# Assay in all cases: glycan array binding signal (z-score within array); higher = stronger binding
# Details in all cases: glycan notation: IUPAC condensed, linker removed
# [1] = biological target: Gal(b1-4)GalNAc(b1-3)[Fuc(a1-2)]Gal(b1-4)GlcNAc
# Method in brief: (§1)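 Glycan array data came from 3228 arrays in the Consortium for Functional Glycomics database, and only arrays with an available protein sequence were kept. Glycan names were put into IUPAC-condensed notation, and columns mapping to the same glycan were averaged. The binding signal is a within-array Z-score, averaged across arrays of one protein sequence run at different concentrations or buffers and across linkers. A negative Z-score can be read as non-binding.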
# Gal(b1-4)Glc = biological target: Gal(b1-4)Glc
# Method in brief: as §1
# Gal(b1-4)Glc6S = biological target: Gal(b1-4)Glc6S
# Method in brief: as §1
# Gal(b1-4)GlcNAc = biological target: Gal(b1-4)GlcNAc
# Method in brief: as §1
# [2] = biological target: Gal(b1-4)GlcNAc(a1-6)Gal(b1-4)GlcNAc
# Method in brief: as §1
# Gal(b1-4)GlcNAc(b1-2)Man = biological target: Gal(b1-4)GlcNAc(b1-2)Man
# Method in brief: as §1
# [3] = biological target: Gal(b1-4)GlcNAc(b1-2)Man(a1-3)Man(b1-4)GlcNAc(b1-4)GlcNAc
# Method in brief: as §1
# [4] = biological target: Gal(b1-4)GlcNAc(b1-2)Man(a1-3)[Gal(b1-4)GlcNAc(b1-2)Man(a1-6)]Man(b1-4)GlcNAc(b1-4)GlcNAc
# Method in brief: as §1
# [5] = biological target: Gal(b1-4)GlcNAc(b1-2)Man(a1-3)[Gal(b1-4)GlcNAc(b1-2)Man(a1-6)]Man(b1-4)GlcNAc(b1-4)[Fuc(a1-6)]GlcNAc
# Method in brief: as §1
# [6] = biological target: Gal(b1-4)GlcNAc(b1-2)Man(a1-3)[Gal(b1-4)GlcNAc(b1-2)Man(a1-6)][Gal(b1-4)GlcNAc(b1-4)]Man(b1-4)GlcNAc(b1-4)[Fuc(a1-6)]GlcNAc
# Method in brief: as §1
# [7] = biological target: Gal(b1-4)GlcNAc(b1-2)Man(a1-3)[Gal(b1-4)GlcNAc(b1-2)Man(a1-6)][GlcNAc(b1-4)]Man(b1-4)GlcNAc(b1-4)[Fuc(a1-6)]GlcNAc
# Method in brief: as §1
# [8] = biological target: Gal(b1-4)GlcNAc(b1-2)Man(a1-3)[GlcNAc(b1-2)Man(a1-6)]Man(b1-4)GlcNAc(b1-4)GlcNAc
# Method in brief: as §1
# [9] = biological target: Gal(b1-4)GlcNAc(b1-2)Man(a1-3)[GlcNAc(b1-4)][Gal(b1-4)GlcNAc(b1-2)Man(a1-6)]Man(b1-4)GlcNAc(b1-4)GlcNAc
# Method in brief: as §1
# [10] = biological target: Gal(b1-4)GlcNAc(b1-2)Man(a1-3)[Man(a1-6)]Man(b1-4)GlcNAc(b1-4)GlcNAc
# Method in brief: as §1
# [11] = biological target: Gal(b1-4)GlcNAc(b1-2)Man(a1-6)Man(b1-4)GlcNAc(b1-4)GlcNAc
# Method in brief: as §1
# [12] = biological target: Gal(b1-4)GlcNAc(b1-2)Man(a1-6)[GlcNAc(b1-2)Man(a1-3)]Man(b1-4)GlcNAc(b1-4)GlcNAc
# Method in brief: as §1
# [13] = biological target: Gal(b1-4)GlcNAc(b1-2)Man(a1-6)[Man(a1-3)]Man(b1-4)GlcNAc(b1-4)GlcNAc
# Method in brief: as §1
# [14] = biological target: Gal(b1-4)GlcNAc(b1-2)[Gal(b1-4)GlcNAc(b1-4)]Man(a1-3)[Gal(b1-4)GlcNAc(b1-2)Man(a1-6)]Man(b1-4)GlcNAc(b1-4)GlcNAc
# Method in brief: as §1
# [15] = biological target: Gal(b1-4)GlcNAc(b1-2)[Gal(b1-4)GlcNAc(b1-4)]Man(a1-3)[Gal(b1-4)GlcNAc(b1-2)[Gal(b1-4)GlcNAc(b1-6)]Man(a1-6)]Man(b1-4)GlcNAc(b1-4)GlcNAc
# Method in brief: as §1
# [16] = biological target: Gal(b1-4)GlcNAc(b1-2)[Gal(b1-4)GlcNAc(b1-4)]Man(a1-3)[GlcNAc(b1-4)][Gal(b1-4)GlcNAc(b1-2)Man(a1-6)]Man(b1-4)GlcNAc(b1-4)GlcNAc
# Method in brief: as §1
# [17] = biological target: Gal(b1-4)GlcNAc(b1-2)[Gal(b1-4)GlcNAc(b1-4)]Man(a1-3)[GlcNAc(b1-4)][Gal(b1-4)GlcNAc(b1-2)[Gal(b1-4)GlcNAc(b1-6)]Man(a1-6)]Man(b1-4)GlcNAc(b1-4)GlcNAc
# Method in brief: as §1
# [18] = biological target: Gal(b1-4)GlcNAc(b1-2)[Gal(b1-4)GlcNAc(b1-6)]Man(a1-6)[Gal(b1-4)GlcNAc(b1-2)Man(a1-3)]Man(b1-4)GlcNAc(b1-4)GlcNAc
# Method in brief: as §1
binder,measurement,setting,value
"BC2LB (Burholderia cenocepacia), B4EH85_BURCJ (protein) MGSSHHHHHHSSGENLYFQGHMSQPFTHDDLYALLQLAGNDATAVQANGDQAVLDRMRQFMTAQLVEKLPQYDVFVDIATIPYSFDVGSWQNKVKTDAAGEVVACTVTWAGAPGVLPGAAAKFGVGAVVNYFSKATPH",glycan array binding signal (z-score),[1],-0.357
same,glycan array binding signal (z-score),Gal(b1-4)Glc,-0.344
same,glycan array binding signal (z-score),Gal(b1-4)Glc6S,-0.223
same,glycan array binding signal (z-score),Gal(b1-4)GlcNAc,-0.234
same,glycan array binding signal (z-score),[2],-0.256
same,glycan array binding signal (z-score),Gal(b1-4)GlcNAc(b1-2)Man,0.281
same,glycan array binding signal (z-score),[3],-0.138
same,glycan array binding signal (z-score),[4],-0.343
same,glycan array binding signal (z-score),[5],-0.022
same,glycan array binding signal (z-score),[6],-0.306
same,glycan array binding signal (z-score),[7],-0.329
same,glycan array binding signal (z-score),[8],-0.234
same,glycan array binding signal (z-score),[9],-0.264
same,glycan array binding signal (z-score),[10],0.202
same,glycan array binding signal (z-score),[11],-0.192
same,glycan array binding signal (z-score),[12],-0.225
same,glycan array binding signal (z-score),[13],-0.308
same,glycan array binding signal (z-score),[14],-0.008
same,glycan array binding signal (z-score),[15],-0.407
same,glycan array binding signal (z-score),[16],-0.282
same,glycan array binding signal (z-score),[17],-0.22
same,glycan array binding signal (z-score),[18],-0.217
